# According to the supplement of paper PMC3334620:
# Over roughly 33,000 sequences, “E-score (-0.5 to 0.5)” has its median near -0.054; the highest 2% begin near 0.35. This is one part of the list.
# Target: T1, Stb5 (UniProt P38699)
# T1 sequence: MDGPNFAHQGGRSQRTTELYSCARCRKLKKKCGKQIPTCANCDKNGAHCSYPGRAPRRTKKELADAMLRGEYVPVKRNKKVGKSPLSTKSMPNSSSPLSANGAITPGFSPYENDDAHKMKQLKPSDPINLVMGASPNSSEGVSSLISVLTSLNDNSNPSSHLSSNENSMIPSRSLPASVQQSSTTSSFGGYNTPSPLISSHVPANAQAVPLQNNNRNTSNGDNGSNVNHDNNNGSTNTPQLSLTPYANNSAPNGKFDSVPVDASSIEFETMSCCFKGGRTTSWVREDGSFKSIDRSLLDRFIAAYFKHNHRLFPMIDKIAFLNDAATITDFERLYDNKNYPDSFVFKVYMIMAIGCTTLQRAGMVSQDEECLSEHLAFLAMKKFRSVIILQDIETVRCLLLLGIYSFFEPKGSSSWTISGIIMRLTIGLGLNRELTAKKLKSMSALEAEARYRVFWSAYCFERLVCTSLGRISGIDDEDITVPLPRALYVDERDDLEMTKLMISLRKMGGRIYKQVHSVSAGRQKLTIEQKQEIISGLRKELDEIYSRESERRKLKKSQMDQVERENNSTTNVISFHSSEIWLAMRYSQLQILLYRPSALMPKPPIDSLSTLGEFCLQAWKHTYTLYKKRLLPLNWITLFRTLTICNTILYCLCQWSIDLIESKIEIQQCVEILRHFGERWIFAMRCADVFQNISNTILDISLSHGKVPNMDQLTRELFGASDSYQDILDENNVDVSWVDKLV
# Test: PBM E-score (8-mer binding enrichment) (E-score (-0.5 to 0.5)); higher = stronger / more preferred TF binding; most listed sequences are background and not binding sites
# Settings: protein concentration: 200 nM; construct: GST-full length
# Procedure: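 Universal 'all 10-mer' protein binding microarrays (Agilent AMADID 015681) probed with GST-tagged S. cerevisiae TFs (full-length or DBD) made by in vitro transcription/translation (PURExpress), about 100-200 nM. Bound TF was detected with fluorescent anti-GST. Each ungapped 8-mer (which stands for itself and its reverse complement) is scored by the PBM enrichment score (E-score), a modified Wilcoxon-Mann-Whitney statistic from -0.5 to +0.5, computed with the Universal PBM Analysis Suite. Scale: above 0.35 generally sequence-specific binding.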
row,Sequence,PBM E-score
1,ATGCATGG,-0.159
2,TATATATA,0.201
3,AGACCTCC,-0.00725
4,GTAAGTTA,-0.0371
5,ATCTGGTA,-0.0778
6,CAAGCATC,-0.119
7,ACGTACGC,-0.121
8,ACAAGGAC,-0.364
9,CGTTATTA,0.196
10,CTCGTCTC,-0.254
11,CCTTGATC,-0.0818
12,CGCCCCAG,-0.0597
13,ACATGAAG,2e-05
14,CATCATTA,-0.103
15,CACAATGG,-0.24
16,GAGCATGC,-0.261
17,AGCATATA,0.0876
18,AGCGGCGG,0.401
19,TTATATAA,0.137
20,CTCTACAA,-0.18
21,GGGTCAGA,0.0485
22,AGATACAA,-0.086
23,CACCGAGA,0.151
24,CCAACTGC,0.0151
25,AAGCGGGA,0.266

row,Sequence,PBM E-score
1,ACAGCGGA,0.301
2,AACCGCAC,0.00707
3,GCACATGC,-0.105
4,GATTAGAC,-0.0346
5,CCGGATTA,0.241
6,AGCGGACC,0.359
7,GGTGCTAC,0.235
8,ATACTCAC,-0.0625
9,ATGAGGGG,-0.124
10,CGTACATC,-0.0222
11,GAGTAAGC,-0.205
12,ACACATCG,-0.211
13,CATAAACG,0.122
14,ATAACGGC,0.31
15,CTGTCGCA,0.00446
16,ACCAGAAT,-0.0325
17,ATTGCTTA,-0.0596
18,ATTTGCAC,-0.273
19,CAGCTTAG,-0.121
20,ACCCGCAT,0.112
21,ATTTTGTG,0.0555
22,GGCGTCAA,0.267
23,GCCCGCCA,0.284
24,CCACAGCG,-0.00683
25,CGCGGCCA,0.165

row,Sequence,PBM E-score
1,AGAACTTG,-0.183
2,AATGGCTG,-0.207
3,GTAGCTTA,-0.107
4,CATCCTCC,0.00174
5,ATACTGTG,-0.133
6,ATTACTCG,-0.0965
7,ATCATTAC,-0.113
8,ATAGTCGC,0.119
9,CAACCCTA,-0.358
10,CGTGGCTC,-0.258
11,ATGTGAGA,-0.175
12,ACCACTCA,-0.153
13,CCGCATTC,0.0927
14,CCTCGCCC,-0.219
15,AAGCCAGC,-0.303
16,CCGGCCTA,0.21
17,CTTCTATC,-0.12
18,GTTGATTA,0.0519
19,CAGCACAA,-0.123
20,ACGGGGCT,0.366
21,CTAATCAG,-0.112
22,TATCTACA,-0.197
23,CCGCCATC,0.185
24,GAGGTAAC,0.135
25,ACAAGAAC,-0.0649

row,Sequence,PBM E-score
1,ACAAGCAG,-0.155
2,CACTTGCG,-0.0879
3,ATGTGCGC,0.135
4,AGGCGTAG,-0.00577
5,CCCGACCA,0.326
6,CGCTCGGC,0.243
7,CAGTGGAG,-0.135
8,CGGCTTCA,0.259
9,GTCCGCAC,0.324
10,CAATTGCA,-0.121
11,GATGAGCA,-0.148
12,ACGGACGT,0.308
13,CACAAAGC,-0.103
14,AATAGAAA,-0.0354
15,AGTCCCAT,0.00895
16,TCTGTCCA,0.0453
17,CGGATTTC,0.223
18,CAGGAGTA,-0.181
19,AGAGTTTC,-0.164
20,GAACCCTA,-0.181
21,AAATCTCG,-0.0665
22,TCAGGGGA,-0.254
23,CCCCGCAA,0.284
24,CCACCTTC,-0.199
25,GGTTCGAA,-0.0855

row,Sequence,PBM E-score
1,CAGTGAGG,-0.233
2,CCTCTCAA,-0.0888
3,CCCTTCCA,-0.107
4,ACGATATC,-0.0544
5,GATTGAAC,0.0537
6,ACCCAACT,-0.263
7,AATTGTTA,0.0529
8,CAATAAAC,0.135
9,CAAAAACA,-0.116
10,AATGCTCG,-0.221
11,CCGTGTTC,0.137
12,TACTCAAA,-0.199
13,CCAGCCTA,-0.226
14,ACCGATCA,0.293
15,ACTTTGCA,-0.119
16,ATTGGTAC,0.0151
17,AACGAATC,-0.0815
18,TACATGCA,-0.019
19,TGCGGAAA,0.0033
20,AGTCGCGG,0.203
21,CACTAGAG,-0.0417
22,ACGTTACA,-0.246
23,TCTCGAAA,-0.206
24,GGTGGAAC,-0.0383
25,CGGGCTAG,0.135

row,Sequence,PBM E-score
1,AACAGCGG,0.366
2,AGCTTTGC,-0.13
3,AAGTCCCG,0.385
4,AAATTGTC,0.143
5,ACGAGAAA,-0.0778
6,AAGTTAAT,-0.067
7,ACATATCC,0.154
8,ACTGTTCC,-0.141
9,GAGCCTCC,-0.123
10,TAGATGCA,-0.176
11,CGGGGCTC,0.259
12,AGGTAAAT,-0.00248
13,GGTGATAA,0.415
14,CGAGGGGA,-0.104
15,CGTTAATC,0.238
16,ATCCCCCG,0.292
17,CTAAACAA,-0.252
18,ACCAACCT,-0.149
19,GCTATTAC,0.128
20,GGTCAGTA,-0.0306
21,GGATGCCA,-0.226
22,GGGAATAC,0.302
23,CCACTTGA,-0.00654
24,ACAGTCTA,-0.0348
25,TAGCACTA,-0.246

row,Sequence,PBM E-score
1,TTAATCAA,-0.0616
2,GTACTATA,0.0937
3,CCGAGACC,0.102
4,CAGGAAAC,-0.116
5,AACTTACG,-0.0554
6,AAGTTGAC,-0.145
7,ACAGCGCT,0.22
8,GGAGCAAC,-0.072
9,CATCACCC,0.105
10,GTGAAAAC,0.0712
11,AGCGAAGC,-0.00055
12,CAAAAGCA,-0.198
13,AAATCCGG,0.376
14,GGGAAACC,-0.071
15,GAACCGAA,0.0136
16,AACACCCT,-0.128
17,ACAGATGA,-0.234
18,AAACCAGA,-0.163
19,ACGGGGAA,0.252
20,AGCGATGC,-0.112
21,ATTGGTAA,-0.127
22,GCGTGGCC,-0.159
23,AGAATCAT,-0.352
24,ACAAGTGC,-0.12
25,CTCGAGCA,-0.111

row,Sequence,PBM E-score
1,CTTCATCC,-0.149
2,CTAAATGA,-0.0107
3,CCGCGGGC,0.335
4,AAGCCCTC,-0.212
5,TCATAAAA,0.0474
6,ACACATAC,-0.0739
7,AAAGTGGT,-0.2
8,ATCAAGCC,-0.0665
9,CAAAACGG,0.174
10,AAACCGAC,0.222
11,GCTCTTCC,-0.0228
12,CCTAACCG,0.0522
13,ATCTCTGA,-0.172
14,ATTCATCG,0.0533
15,ACACTGAG,-0.202
16,CGTGCCGC,0.249
17,ACTTGAAG,-0.228
18,CAGAAACA,-0.147
19,GCAAACTA,-0.229
20,AATCCGAT,0.273
21,CCAGTGTC,-0.136
22,GGACTGAA,0.0173
23,ACGGAATG,-0.0673
24,ACACCTAA,-0.0437
25,AGCGGTTC,0.0808

row,Sequence,PBM E-score
1,CAGTCCGA,0.273
2,CCTGCCCA,-0.218
3,CCGTGGAG,0.212
4,CTGTAAAG,-0.125
5,CATGCGAA,-0.0641
6,CCCTCATC,-0.234
7,CCTCGCAG,-0.138
8,ACGCCAAT,-0.0245
9,ATTGTGAG,0.022
10,AATAGACG,-0.0169
11,ATCGTCAG,-0.181
12,ATCACTGA,-0.105
13,CTACTGCA,-0.304
14,CAGTCAGG,-0.29
15,CGCCTGTC,-0.0556
16,CAAGAGAG,-0.209
17,GAAATATA,0.222
18,TAGATACA,-0.231
19,AAGGCGTC,-0.106
